Each structure is given as a SMILES string. For part of its entries the source gives two or more results. Only these are listed. There may be further records. Values given together are repeated measurements across runs, samples, wells, individuals or studies.

The assay concerns LX-1 lung xenograft sc, nude mice, tumor weight. In words: NCI In Vivo Anticancer Drug Screen. Data for tumor model Human Lung LX-1 Xenograft (subcutaneous) in NU/NU Swiss (nude) mice. The note with it: endpoint: optimum tumor weight change, higher = larger tumour. The procedure: The antitumor activity of compounds was measured in mice bearing transplantable tumors. Survival or tumor size were measured and the results are expressed as the measurement made in the treated group (T) divided by the measurement made in the vehicle treated control group (C). The tumor model used in this assay is Human Lung LX-1 Xenograft (subcutaneous) in NU/NU Swiss (nude) mice

For the compound `N[C@@H](Cc1ccc(N(CCCl)CCCl)cc1)C(=O)O`, the T/C (dose: 2.0 mg/kg/injection, schedule: Q04DX003 (ip), vehicle: suspension in saline) was 112 % of control and 183 % of control.

In the case of `CN(CO)c1nc(N(C)CO)nc(N(C)CO)n1`, under “dose: 25.0 mg/kg/injection, schedule: Q07DX005 (ip), vehicle: saline”, the T/C was 13 % of control and 62 % of control.

Take `O=C1c2c(O)ccc(O)c2C(=O)c2c(NCCNCCO)ccc(NCCNCCO)c21`: the T/C by setting is: (dose: 0.63 mg/kg/injection, schedule: Q04DX003 (ip), vehicle: water) 55 % of control, 81 % of control, 107 % of control; (dose: 1.25 mg/kg/injection, schedule: Q04DX003 (ip), vehicle: water) 77 % of control and 109 % of control. On to `CC(C)CCCCCCCCCCCCC(=O)NCC(=O)NC1C(O)C(O)C(Nc2ncnc3nc[nH]c23)OC1C(O)CO` (centres undefined), for which the T/C (dose: 6.0 mg/kg/injection, schedule: Q04DX003 (ip), vehicle: suspension in saline) was 18 % of control and 77 % of control. For `CN(C)c1nc(N(C)C)nc(N(C)C)n1`, the T/C is, setting by setting: (dose: 60.0 mg/kg/injection, schedule: Q04DX005 (ip), vehicle: Klucel (hydroxypropylcellulose) (HPC)) 65 % of control and 102 % of control; (dose: 120.0 mg/kg/injection, schedule: Q04DX005 (ip), vehicle: Klucel (hydroxypropylcellulose) (HPC)) 42 % of control and 81 % of control. For `CN(C)N=Nc1ccccc1`, the T/C (dose: 50.0 mg/kg/injection, schedule: Q04DX003 (ip), vehicle: Klucel (hydroxypropylcellulose) (HPC)) was -21 % of control and 10 % of control.

Turning to `CNC=O`, the T/C (dose: 1600.0 mg/kg/injection, schedule: Q04DX003 (ip), vehicle: saline) was 2 % of control and 28 % of control.

The record behind these values is PubChem BioAssay AID262 (DTP/NCI, 2004).
